# Laboratory results from PubChem BioAssay AID588795 (National Center for Advancing Translational Sciences (NCATS), 2011).
# Screen size: about 390,000 compounds; about 1,400 (0.36%) were called active. Inconclusive means that the source gave no clear call. Such entries were picked first, then a sample of the others. Calls come from the whole dose curve; as a rule, active = well fitted inhibition curve with a large enough effect; inconclusive = small, poorly fitted or top-dose-only effect; inactive = no such curve, though single readings can be large or run the other way. Where the call is inconclusive, the potency comes from a doubtful curve fit.
# Target: Flap endonuclease 1 (Homo sapiens) (UniProt P39748)
# Assay: qHTS Assay for the Inhibitors of Human Flap endonuclease 1 (FEN1). Note: nearly all actives have a fitted effect of over 65% in size.
# Settings: Recombinant FEN1 flap cleavage, fluorescence, 15 min; series mostly up to 114 µM
# How it was run: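 FEN1 at 10 nM, compound pretreatment for 15 min (room temperature), 50 nM final substrate to initiate; endpoint reads at 0 and 15 min; DMSO-only plates used as vehicle background.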
# Potency is the fitted concentration of half-maximal effect; tags give direction and shape of the fitted curve.
# UniProt P39748, sequence (P39748 whole entry, looked up): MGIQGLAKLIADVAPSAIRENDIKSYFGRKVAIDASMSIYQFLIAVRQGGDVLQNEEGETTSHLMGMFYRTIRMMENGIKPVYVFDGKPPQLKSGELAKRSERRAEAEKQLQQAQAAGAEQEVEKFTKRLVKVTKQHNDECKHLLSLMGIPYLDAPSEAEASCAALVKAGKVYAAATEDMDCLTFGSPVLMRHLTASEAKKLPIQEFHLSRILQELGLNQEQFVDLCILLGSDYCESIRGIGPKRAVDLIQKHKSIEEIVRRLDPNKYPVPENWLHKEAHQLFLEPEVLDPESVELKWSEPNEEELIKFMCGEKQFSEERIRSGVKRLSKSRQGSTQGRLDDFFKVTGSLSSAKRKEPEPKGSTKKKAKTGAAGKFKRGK
row,Structure (SMILES),Potency
1,CC(C)C[C@@H](CNCC(=O)[C@H](CC(C)C)NC(=O)c1[nH]cnc1C(=O)N[C@H](CN)CC(C)C)NC(=O)c1nc[nH]c1C(=O)N[C@@H](Cc1ccccc1)C(=O)O,inactive
2,CN(C)c1ccc(/C=C/c2nccc3ccccc23)cc1,"inconclusive: 50.1 µM [inhibitor, partial curve, poor fit]"
3,Cc1ccc(-c2nn3c(C)nnc3s2)cc1NC(=O)c1ccc(-c2cccc(Cl)c2)o1,"inconclusive: 100 µM [inhibitor, single point]"
4,CCCC[C@@H]1CCCO[C@@](C(=O)NCc2ccccc2)(C(F)(F)F)C1,inactive
5,S=c1ncc2n[nH]nc2[nH]1,"inconclusive: 28.2 µM [inhibitor, full curve]"
6,CCOC(=O)c1c[nH]c2ccc3ccccc3c2c1=O,"inconclusive: 20 µM [inhibitor, full curve, poor fit]"
7,COc1c(C(CC(C)C)OC(C)=O)ccc2c1C(=O)OCc1cc(C)cc(O)c1O2 (stereo not given),"inconclusive: 89.1 µM [inhibitor, partial curve, poor fit]"
8,Cn1ncc2c(Nc3ccc4ccccc4c3)ncnc21,"inconclusive: 56.2 µM [inhibitor, partial curve, poor fit]"
9,CC(=O)Nc1ccc(N2CCCC2)cc1,"inconclusive: 22.4 µM [inhibitor, full curve, poor fit]"
10,COc1ccc2c(c1)-c1c(ssc1=S)C(C)(C)N2C(=O)CSC1=NCCS1,inactive
11,CCOc1ccccc1NC(=O)C(CC)n1c(C(=O)OC)cc2occc21 (stereo not given),"inconclusive: 89.1 µM [inhibitor, single point]"
12,N#Cc1c(SCC(=O)Nc2cccc(C(F)(F)F)c2)sc2c(O)cc(=O)[nH]c12,active: 25.1 µM
13,CN(CCCNC(=O)c1cccn2c(=O)c3ccccc3nc12)Cc1ccccc1,"inconclusive: 89.1 µM [inhibitor, single point]"
14,Cc1cc(C)nc(NC(N)=NCCc2c[nH]c3ccccc23)n1,"inconclusive: 70.8 µM [inhibitor, partial curve]"
15,NC(=O)c1c(NC(=O)CSc2nnc(-c3ccco3)n2-c2ccccc2)sc2c1CCC2,"inconclusive: 56.2 µM [inhibitor, partial curve, poor fit]"
16,CCOC(=O)N1CCN([N+]([O-])=NOc2cc(O/N=[N+](\[O-])N(CC)CC)c([N+](=O)[O-])cc2[N+](=O)[O-])CC1,"inconclusive: 31.6 µM [inhibitor, single point]"
17,CCC(C)Nc1nc(N)c([N+](=O)[O-])c(N2CCCCCC2)n1 (stereo not given),"inconclusive: 50.1 µM [inhibitor, partial curve]"
18,O=C(c1ccc(Cl)cc1)c1cnc(Nc2ccccc2Cl)s1,inactive
19,CCOc1ccc(NC(=O)c2ccc3[nH]c(=O)c(=O)[nH]c3c2)cc1,inactive
20,CC(C)c1cnc2c(c1SCC(=O)Nc1cccc(F)c1)c(=O)n(C)c(=O)n2C,inactive

row,Structure (SMILES),Potency
1,O=C(NCCCN1CCOCC1)c1cccc(S(=O)(=O)Nc2ccc(F)cc2)c1,inactive
2,Cc1ccnc(-n2sc3ccccc3c2=O)n1,"inconclusive: 89.1 µM [inhibitor, single point]"
3,Cc1ccc(NC(=O)Cn2ncc(Cl)c(Cl)c2=O)cc1S(=O)(=O)N1CCCCC1,inactive
4,COc1cc(NC(=O)c2cc3c(=O)n(C)c4ccccc4c3n2C)cc(OC)c1OC,"inconclusive: 89.1 µM [inhibitor, single point]"
5,C#CCOCCOCCOCCNc1nc(N2CCN(C(=O)CCCCCCCCCCNC(=O)Cn3cc(CCCCCN)nn3)CC2)nc(N2CCN(C(=O)CCCCCCCCCCNC(=O)[C@@H](CCSC)n3cc(CCO)nn3)CC2)n1,"inconclusive: 89.1 µM [inhibitor, single point]"
6,Cc1cc(Nc2ccc(Cl)cc2)nc(NCc2ccccc2)n1,"inconclusive: 89.1 µM [inhibitor, partial curve, poor fit]"
7,Cc1[nH]n(-c2ccc(Br)cc2)c(=O)c1/C=N/NC(=O)c1ccccc1,"inconclusive: 7.94 µM [inhibitor, partial curve, poor fit]"
8,CCCSc1nnc2nc3c(nn12)c1ccccc1n3C,"inconclusive: 56.2 µM [inhibitor, partial curve, poor fit]"
9,CC(C)(C)C(=O)O/N=C1\CCS(=O)(=O)c2sccc21,inactive
10,Cc1sc2nc(SCC(=O)N(C)C)[nH]c(=O)c2c1C,inactive
11,O=S(=O)(NCc1csc(-c2ccccc2)n1)c1ccc(Cl)s1,"inconclusive: 79.4 µM [inhibitor, partial curve, poor fit]"
12,CCN1CCN(c2c(Cl)cccc2NC(=O)c2ccc(Br)o2)CC1,"inconclusive: 50.1 µM [inhibitor, partial curve, poor fit]"
13,CCc1ccc(S(=O)(=O)Nc2ccc(O)c3ccccc23)cc1,"inconclusive: 17.8 µM [inhibitor, partial curve, poor fit]"
14,CSCCOC(=O)c1[nH]c2c(c1C)C(=O)CC(c1ccco1)C2 (stereo not given),"inconclusive: 22.4 µM [inhibitor, partial curve, poor fit]"
15,C=CC(=O)Nc1ccc(CN2C(=O)N(c3c(Cl)c(OC)cc(OC)c3Cl)Cc3cnc(NCCCCN(CC)CC)nc32)cc1,"inconclusive: 79.4 µM [inhibitor, partial curve]"
16,O=C(CSc1nc(O)cc(=O)[nH]1)Nc1ccc2c(c1)CCC2,"inconclusive: 89.1 µM [inhibitor, partial curve, poor fit]"
17,C/C(=N\NC(=O)CN(c1ccc(Oc2ccccc2)cc1)S(C)(=O)=O)C(C)(C)C,"inconclusive: 89.1 µM [inhibitor, partial curve, poor fit]"
18,OCc1ccccc1SSc1ccccc1CO,"inconclusive: 89.1 µM [inhibitor, single point]"
19,COC(=O)C(=O)/C=C(\O)c1c(C)cc(C)cc1C,"inconclusive: 28.2 µM [inhibitor, full curve]"
20,COc1ccccc1OC(C)C(=O)Nc1cccc(-c2nc3ccccc3o2)c1 (stereo not given),"inconclusive: 79.4 µM [inhibitor, partial curve, poor fit]"
